{
  "source": "PubChem BioAssay AID651820",
  "about": "(National Center for Advancing Translational Sciences (NCATS), 2012)",
  "note": "Out of some 340,000 compounds screened, about 12,000 (3.5%) were called active. Inconclusive means that the source gave no clear call. Such entries were picked first, then a sample of the others. The call rests on the fitted dose curve; in most records, active means well fitted inhibition curve with a large enough effect; inconclusive means small, poorly fitted or top-dose-only effect, or another doubt; inactive means no such curve, though single readings can be large or run the other way. No potency is given beside an inconclusive call; the fits are too rough. On the % scale 0 is the no-effect control and ±100 the full control effect; potency means the concentration at half of the fitted maximal effect; tags describe the fitted curve by direction and shape.",
  "data": [
    {"assay": "qHTS Assay for Inhibitors of Hepatitis C Virus (HCV)", "details": "Huh7.5.1 HCVcc-Cre (HCVcc is cell-culture hepatitis C virus) infection, luciferase reporter, 44 h; activity change, negative = inhibition: at 41.8 µM (top of the series)", "method_in_brief": "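Infectious HCVcc-Cre (~0.5 moi) was added to cells just after compound, with cells seeded 4 h earlier at 1,000 per well. Luciferase activity after 44 h culture reported infection; substrate was incubated 15 min at room temperature before reading.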", "values": [
      {"smiles": "Cc1ccc(-c2noc(C3CCCN(C(=O)c4cccc([N+](=O)[O-])c4)C3)n2)o1", "note": "(stereo not drawn)", "Potency": "inconclusive [inhibitor, partial curve]"},
      {"smiles": "CC(C)c1ccc(-n2cccc2/C=C2/C(=N)N3C=CSC3=NC2=O)cc1", "Potency": "inconclusive [inhibitor, single point]"},
      {"smiles": "Cn1c(-c2ccccc2)cnc1NCc1cc(Cl)ccc1O", "activity change, negative = inhibition": "inactive: -3.25%"},
      {"smiles": "Cc1ccc2c(CN3CCC(C)CC3)cc(=O)oc2c1", "Potency": "inconclusive [inhibitor, full curve]"},
      {"smiles": "CCN(CC)c1ccc(NC(=O)Nc2ccccc2C(F)(F)F)cc1", "Potency": "inconclusive [inhibitor, single point]"},
      {"smiles": "CN(CC(=O)Nc1ccccc1Cl)C(=O)c1ccc(-c2cccc(C(F)(F)F)c2)o1", "Potency": "inconclusive [inhibitor, single point]"},
      {"smiles": "Cc1cccc(N2CCN(C(=O)C3CCN(S(=O)(=O)c4c(C)noc4C)CC3)CC2)c1C", "Potency": "active: 12.6 µM"},
      {"smiles": "Cc1ccc(C2C3CN(C(C)C)CC=C3C(C#N)=C(N)C2(C#N)C#N)cc1", "note": "(stereo not drawn)", "Potency": "inactive"},
      {"smiles": "O=C(O)Cc1ccc(NC(=O)c2ccc(NC(=O)C3CC3)cc2)cc1", "activity change, negative = inhibition": "inactive: 9.83%"},
      {"smiles": "O=C1CCCN1CCC1CCN(C2CC(=O)N(c3ccc(Cl)cc3)C2=O)CC1", "note": "(stereo not drawn)", "activity change, negative = inhibition": "inactive: 23.2%"},
      {"smiles": "O=C(/C=C/c1ccccc1)NNC(=O)c1cccs1", "activity change, negative = inhibition": "inactive: 6.72%"},
      {"smiles": "CCc1ccc2c(c1)CCCN2C(=O)c1ccccc1C(=O)O", "Potency": "active: 10 µM"},
      {"smiles": "COC(=O)c1c(C)[nH]c(/C=N/Nc2ccccc2)c1C", "activity change, negative = inhibition": "inactive: -15%"},
      {"smiles": "Cc1cc(C)cc(C(=O)N(C)C2CCCN(Cc3ccccc3F)C2)c1", "note": "(stereo not drawn)", "Potency": "active: 12.6 µM"},
      {"smiles": "CCn1cc(C(=O)NCCC(=O)NCCCO)c(=O)c2cc3c(cc21)OCO3", "activity change, negative = inhibition": "inactive: 0.266%"},
      {"smiles": "COc1ccc2c(c1)C1=NN(/C(C)=C/C(C)=O)C(c3cccc(F)c3)C1CC2", "note": "(stereo not drawn)", "activity change, negative = inhibition": "inconclusive: -35.9% [inhibitor]"},
      {"smiles": "CCCN1CCC(CCOc2ccccc2)(C(=O)OCC)CC1", "activity change, negative = inhibition": "inactive: -0.441%"},
      {"smiles": "COc1ccc(C2CC(c3ccc(C(F)(F)F)cc3)=NN2c2ccc(S(N)(=O)=O)cc2)cc1", "note": "(stereo not drawn)", "Potency": "inconclusive [inhibitor, partial curve]"},
      {"smiles": "Cn1nc2c(c1C(=O)N1CCCC(C(=O)c3cc(F)ccc3F)C1)CCCC2", "note": "(stereo not drawn)", "Potency": "inconclusive [inhibitor, single point]"},
      {"smiles": "CCOC(=O)CN=C1CC(C)(C)CC2=C1Sc1ncnc(N(C)C)c1N2", "activity change, negative = inhibition": "inactive: -3.97%"},
      {"smiles": "COC(=O)c1c(-c2ccncc2)csc1NC(=O)c1ccoc1C", "activity change, negative = inhibition": "inconclusive: -30.9% [inhibitor]"},
      {"smiles": "O=C1CSC(c2cccnc2)N1Cc1ccc(Cl)cc1", "note": "(stereo not drawn)", "activity change, negative = inhibition": "inactive: 12.7%"},
      {"smiles": "CCc1cc(=O)oc2c(C)c(OCC(=O)N3CC[C@@]4(O)CCCC[C@H]4C3)ccc12", "Potency": "inconclusive [inhibitor, full curve, poor fit]"},
      {"smiles": "CCN1CCN(C(=O)CCc2nnc(CCc3ccccc3OC)o2)[C@@H](C)C1=O", "activity change, negative = inhibition": "inactive: 7.89%"},
      {"smiles": "COc1ccc(N2CCN(c3nc(-c4cccs4)nc4ccccc34)CC2)cc1", "Potency": "active: 11.2 µM"},
      {"smiles": "COc1ccc(O)c(C(=O)c2cnc3c(c2)c(=O)[nH]c(=O)n3C)c1", "Potency": "inconclusive [inhibitor, single point]"},
      {"smiles": "CCOC(=O)c1c(N2C(=O)C=CC2=O)sc(C)c1C", "Potency": "inconclusive [inhibitor, single point]"},
      {"smiles": "COCC(C)n1c(C)cc(C(=O)CSc2nnc(Nc3ccccc3F)s2)c1C", "note": "(stereo not drawn)", "Potency": "inconclusive [inhibitor, single point]"},
      {"smiles": "COc1cc(CCCN2C(=S)NC[C@H]2Cc2ccc(O)cc2)cc(OC)c1OC", "Potency": "active: 11.2 µM"},
      {"smiles": "Cc1cc(-c2cc(C)c(N)c(C)c2)cc(C)c1N", "Potency": "inconclusive [inhibitor, single point]"},
      {"smiles": "COc1ccc2c(-c3ccccc3)cc(SC(C)C(N)=O)nc2c1", "note": "(stereo not drawn)", "Potency": "active: 11.2 µM"},
      {"smiles": "O=C(CN1CCN(C2CCCCC2)CC1)Nc1ccccc1N1CCCCC1", "Potency": "inconclusive [inhibitor, single point]"},
      {"smiles": "O=C(CCC(=O)c1cccs1)OCc1ccc([N+](=O)[O-])cc1", "activity change, negative = inhibition": "inactive: 20.9%"},
      {"smiles": "COc1ccc2sc(-c3ccc(S(C)(=O)=O)cc3)c(C(=O)NCCc3c[nH]c4ccccc34)c2c1", "Potency": "inconclusive [inhibitor, full curve]"},
      {"smiles": "CN(C(=O)COC(=O)c1ccccc1OCc1ccc(Cl)cc1)c1c(N)n(Cc2ccccc2)c(=O)[nH]c1=O", "Potency": "inconclusive [inhibitor, single point]"},
      {"smiles": "CCSc1nnc(Cc2cc(=O)[nH]c(=O)[nH]2)n1-c1ccc(F)cc1", "Potency": "inconclusive [inhibitor, single point]"},
      {"smiles": "Cc1ccc(NC(=S)/N=C(\\N)Nc2nc(C)c3ccccc3n2)cc1C", "Potency": "active: 11.2 µM"},
      {"smiles": "CCNC(=O)COc1ccc(/C=C2\\COc3ccccc3C2=O)cc1OC", "Potency": "inconclusive [inhibitor, single point]"},
      {"smiles": "COC(=O)C(C)Oc1cc(C)cc2oc(=O)c3c(c12)CCC3", "note": "(stereo not drawn)", "Potency": "inconclusive [inhibitor, full curve]"},
      {"smiles": "O=C(O)CCCc1nc2ccccc2s1", "activity change, negative = inhibition": "inactive: -11.4%"},
      {"smiles": "O=C(CN(Cc1cccs1)C(=O)CNS(=O)(=O)c1ccc(Cl)cc1)NCC1CCCO1", "note": "(stereo not drawn)", "activity change, negative = inhibition": "inactive: 19.2%"},
      {"smiles": "O=C(Cn1c(=O)c2cccn2c2ccc(F)cc21)NCCCN1CCN(c2ccccc2F)CC1", "Potency": "inconclusive [inhibitor, partial curve]"},
      {"smiles": "O=C(Nc1ccccc1)C1=C[C@H](C2CCCCC2)C[C@H](OCc2ccc(CO)cc2)O1", "activity change, negative = inhibition": "inactive: -4.51%"},
      {"smiles": "Cc1cc(C(=O)OCC(=O)c2ccccc2)c2ccccc2n1", "activity change, negative = inhibition": "inactive: -0.532%"},
      {"smiles": "Cc1cc(C(=O)CSc2nc3ccccc3n2C)c(C)n1C", "Potency": "inconclusive [inhibitor, partial curve]"},
      {"smiles": "COc1ccc(C(C)=O)cc1COC(=O)c1cccc(N(C)C)c1", "Potency": "inconclusive [inhibitor, partial curve]"},
      {"smiles": "C[C@@H](NS(=O)(=O)c1cc(Cl)ccc1F)[C@H](O)c1ccccc1", "Potency": "inconclusive [inhibitor, single point]"},
      {"smiles": "O=C(Nc1ccc(F)cc1F)c1csc(-c2ccncc2)n1", "Potency": "inconclusive [inhibitor, single point]"},
      {"smiles": "COc1ccc(C(CCNCc2ccc(F)cc2)c2ccc(F)cc2)cc1", "note": "(stereo not drawn)", "Potency": "inconclusive [inhibitor, single point]"},
      {"smiles": "COc1cccc(CC(=O)Nc2nc(-c3ccc(OC)c(OC)c3)cs2)c1", "Potency": "active: 12.6 µM"},
      {"smiles": "O=C(c1cccc(S(=O)(=O)N2CCN(c3ccc(F)cc3)CC2)c1)N1CCCC(C(F)(F)F)C1", "note": "(stereo not drawn)", "Potency": "inconclusive [inhibitor, full curve]"},
      {"smiles": "CCN(CC(=O)Nc1cc(Cl)ccc1C)C(=O)C1CC(=O)N(Cc2ccccc2)C1", "note": "(stereo not drawn)", "Potency": "inconclusive [inhibitor, partial curve, poor fit]"},
      {"smiles": "COc1ccccc1NC(=S)N(CCc1c(C)[nH]c2ccccc12)Cc1cccs1", "Potency": "inconclusive [inhibitor, partial curve]"},
      {"smiles": "Cc1cc(C)cc(NC(=S)NCc2ccc3c(c2)OCO3)c1", "activity change, negative = inhibition": "inactive: -17.8%"},
      {"smiles": "O=C(Nc1ccc(O)cc1)c1ccc2c(c1)C(=O)N(N1C(=O)c3ccccc3C1=O)C2=O", "activity change, negative = inhibition": "inactive: 19%"},
      {"smiles": "CC(C)(C)c1ccc(C(=O)NNc2cc(N3CCCCC3)nc(N3CCCCC3)n2)cc1", "Potency": "inconclusive [inhibitor, single point]"},
      {"smiles": "COC(=O)c1cc2occc2n1Cc1nc(-c2cccc(Cl)c2)oc1C", "activity change, negative = inhibition": "inactive: -8.24% [at 8.37 µM]"},
      {"smiles": "COc1cccc(CN2CCN(c3ccc(F)cc3)C2=O)c1", "Potency": "inconclusive [inhibitor, single point]"},
      {"smiles": "COc1ccc([N+](=O)[O-])cc1NC(=S)NC(C)=O", "Potency": "inconclusive [inhibitor, single point]"},
      {"smiles": "CC1CC(NC(=O)c2ncn[nH]2)CC(C)(C)C1", "note": "(stereo not drawn)", "activity change, negative = inhibition": "inactive: -20.8%"},
      {"smiles": "Cc1cccc(NC(=O)C(C)Oc2ccccc2C)n1", "note": "(stereo not drawn)", "Potency": "inconclusive [inhibitor, single point]"},
      {"smiles": "COC(=O)c1sc2cc(C(F)(F)F)cnc2c1-c1cccnc1", "Potency": "active: 0.562 µM"},
      {"smiles": "CCCN(CC(=O)Nc1ccccc1C)C(=O)c1ccc(C)c(S(=O)(=O)N2CCCCC2)c1", "Potency": "inconclusive [inhibitor, full curve, poor fit]"},
      {"smiles": "O=C(NNC(=O)c1ccc(Cl)cc1Cl)c1csc(-c2cccnc2)n1", "activity change, negative = inhibition": "inactive: -3.31%"},
      {"smiles": "COC(=O)c1ccccc1NC(=O)c1ccccc1NS(C)(=O)=O", "Potency": "inconclusive [inhibitor, partial curve]"},
      {"smiles": "Cc1cc(C(=O)N/N=C/c2ccc([N+](=O)[O-])o2)c(C)o1", "Potency": "inconclusive [inhibitor, single point]"},
      {"smiles": "Cc1ccsc1/C=C/c1ccc2cccc(O)c2n1", "Potency": "active: 12.6 µM"},
      {"smiles": "COc1ccc(Cn2c(=O)[nH]c3cc(C(=O)N4CCN(c5ccccc5OC)CC4)ccc3c2=O)cc1", "Potency": "active: 10 µM"},
      {"smiles": "Cc1ccc(S(=O)(=O)NC(C(=O)Oc2cc3oc(=O)cc(C)c3cc2Cl)C(C)C)cc1", "note": "(stereo not drawn)", "Potency": "inactive"},
      {"smiles": "CCNc1nc(OC)nc(SCC(=O)Nc2ccccc2)n1", "Potency": "inconclusive [inhibitor, single point]"},
      {"smiles": "COc1ccc(-c2nc(CC(=O)O)cs2)cc1OC", "activity change, negative = inhibition": "inactive: -14.2%"},
      {"smiles": "COc1ccc(CCN(C(=O)C(F)(F)F)C(C(=O)NC2CCCCC2)c2ccc(C)s2)cc1OC", "note": "(stereo not drawn)", "Potency": "inconclusive [inhibitor, partial curve]"},
      {"smiles": "CC(C)C(=O)Nc1cccc(NC(=S)NC(=O)C(c2ccccc2)c2ccccc2)c1", "Potency": "inconclusive [inhibitor, single point]"}
    ]}
  ]
}
